# Results as given in the supplement of paper PMC3334620.
# Over roughly 33,000 sequences, “E-score (-0.5 to 0.5)” has its median near -0.054; the highest 2% begin near 0.35. The list shows a part of the results.
# Molecular target: T1, Stb5 (UniProt P38699)
# T1 sequence: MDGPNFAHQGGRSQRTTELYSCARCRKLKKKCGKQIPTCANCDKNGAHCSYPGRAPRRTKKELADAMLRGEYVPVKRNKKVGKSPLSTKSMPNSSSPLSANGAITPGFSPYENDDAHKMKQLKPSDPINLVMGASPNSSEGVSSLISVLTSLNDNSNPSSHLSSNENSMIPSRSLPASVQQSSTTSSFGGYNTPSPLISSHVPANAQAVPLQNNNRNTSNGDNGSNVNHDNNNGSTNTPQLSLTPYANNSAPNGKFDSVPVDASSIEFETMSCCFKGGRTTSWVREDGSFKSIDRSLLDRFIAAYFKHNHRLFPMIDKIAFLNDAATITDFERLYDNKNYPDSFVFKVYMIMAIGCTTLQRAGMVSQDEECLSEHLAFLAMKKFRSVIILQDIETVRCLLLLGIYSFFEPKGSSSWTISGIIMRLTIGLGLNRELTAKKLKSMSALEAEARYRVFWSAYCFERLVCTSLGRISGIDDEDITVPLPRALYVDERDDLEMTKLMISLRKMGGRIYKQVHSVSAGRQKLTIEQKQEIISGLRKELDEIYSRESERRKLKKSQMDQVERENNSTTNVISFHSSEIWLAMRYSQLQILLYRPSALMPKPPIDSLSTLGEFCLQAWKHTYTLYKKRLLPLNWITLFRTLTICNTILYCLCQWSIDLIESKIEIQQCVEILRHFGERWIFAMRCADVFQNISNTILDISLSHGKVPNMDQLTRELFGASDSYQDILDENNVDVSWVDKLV
# Test: PBM E-score (8-mer binding enrichment) (E-score (-0.5 to 0.5)); higher = stronger / more preferred TF binding; most listed sequences are background and not binding sites
# Settings: protein concentration: 200 nM; construct: GST-full length
# In short: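 Full-length yeast transcription factors or their DNA-binding domains, GST-tagged and expressed with PURExpress, were applied at about 100-200 nM to universal all-10-mer Agilent arrays. These arrays had been made double-stranded by primer extension on fresh or once-stripped slides. Detection used fluorescent anti-GST, normalisation used masliner, and E-scores for ungapped eight-base words pooled with reverse complements came from the Universal PBM Analysis Suite.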
row,Sequence,PBM E-score
1,ACCTGCGC,0.121
2,AGGCATCG,-0.108
3,AAGCTGTC,-0.214
4,GAGTCTGC,-0.274
5,GAACGTAA,-0.18
6,CCCTAACA,-0.184
7,CAGCCTTC,-0.321
8,ACGTTGGA,-0.298
9,AGTCCCGC,0.358
10,GTACTGGA,-0.147
11,CGGTATAA,0.327
12,AGGCCTAC,0.0243
13,CGGTTAAC,0.18
14,ATATCCTG,-0.165
15,AACAGATT,-0.224
16,CGGGTTTC,0.273
17,AAGCCGTG,-0.0242
18,CATCGTTA,-0.0894
19,GACCTCAC,0.0462
20,CATTGTGG,-0.077
21,ATTCATTA,0.117
22,TCCCAGCA,-0.0554
23,AAAACGCC,0.368
24,GAGGGCCA,-0.195
25,GCTATCTA,-0.0923

row,Sequence,PBM E-score
1,ACCTCTTC,0.0753
2,AGACTGGC,-0.215
3,CTGTTGCA,-0.0546
4,GGCTTACC,0.0504
5,CTTCACTC,-0.116
6,AAAACACT,0.0252
7,CGTTAAGC,0.159
8,ATCACCTG,0.0314
9,GGCAAGAC,0.0734
10,CGCCACCC,-0.0067
11,TAAGTGAA,-0.0582
12,GACCCAAA,-0.0119
13,GTTATTCA,-0.0651
14,ATGCACTA,-0.0627
15,AGCGATAT,-0.141
16,GCCCTCCC,0.0336
17,CCAATTGA,-0.24
18,CAAAATAC,0.0466
19,CCCGTAAG,0.139
20,ACCATTTC,-0.208
21,AACCCATC,-0.139
22,ATGGACAT,-0.0148
23,GTAGTGTA,-0.149
24,CCTCTTTA,-0.0112
25,GCTAAAGC,-0.0673

row,Sequence,PBM E-score
1,CCTAGATC,-0.113
2,ATTATTGG,0.0592
3,ACTCTGCA,-0.026
4,CGTACAGC,0.105
5,CAGATCGG,0.29
6,GCGAGCCA,-0.132
7,CTACCCAA,-0.238
8,GTCGCGCA,0.0561
9,CATGTCCA,-0.117
10,CTACAAAG,-0.212
11,GATCAGAA,-0.321
12,AGTGACAG,-0.0907
13,AAGGGCAA,-0.0626
14,CATTCAGC,-0.149
15,ATACCCCG,0.392
16,ACTCTACG,-0.241
17,ACAGCGTA,-0.0758
18,GAAGGACA,0.0852
19,GGAAACCA,-0.0888
20,CAATCAAC,-0.135
21,ACTTGTCG,0.124
22,GGCCTGAA,0.0195
23,AGTTTCTC,-0.227
24,AAATGTAA,-0.0576
25,CAGTCATA,-0.0326

row,Sequence,PBM E-score
1,TAGGGCAA,-0.123
2,ACCCGACC,0.279
3,GATCGACC,-0.0421
4,CCGCTTGA,0.29
5,GCGTGGCA,-0.121
6,AACAGGCG,0.0259
7,CAGTGTTA,-0.169
8,ATAATGTA,-0.183
9,CAGCTATG,-0.259
10,CATGGACA,-0.32
11,CTGGTGCC,0.0505
12,TGGACGAA,-0.0764
13,ACGCCCGT,0.207
14,CGTTGAGC,0.127
15,ATACCATA,-0.0647
16,AAATAACT,0.0736
17,AGCTATGG,-0.183
18,CGACACCG,0.371
19,CATTAAGG,0.0273
20,TACGTCCA,-0.029
21,ACGGCGAA,0.13
22,CATGAAAC,-0.0171
23,ATCTGTAC,0.0786
24,CCCTGGTA,-0.293
25,GTCGACGA,0.0221

row,Sequence,PBM E-score
1,GAAAGGCA,0.126
2,CAACCTAA,-0.242
3,GGAGTGGA,-0.221
4,AAGTCGCG,0.0857
5,AACGAGCG,0.0519
6,AATCTGGC,0.0172
7,GATGCTCA,0.0136
8,ATTCTGCG,0.0249
9,CACCTGAA,-0.0903
10,CTGCTTTA,-0.129
11,GGACAGTA,0.01
12,CTACCGGA,0.127
13,TCGGTTCA,-0.0201
14,CACCTATC,0.0464
15,GCTCGACC,-0.275
16,CGGACTTC,0.374
17,TAAAATAA,0.0899
18,ACAGTAAT,-0.154
19,CACCACAG,-0.0283
20,CCCTGACC,-0.231
21,ACCAAACA,0.101
22,CGACTCTA,-0.103
23,ATGATAGA,-0.0919
24,CCTACAAG,-0.119
25,GAGAGATA,0.0329

row,Sequence,PBM E-score
1,ACAGCCCC,-0.0495
2,GCGCAGAC,0.117
3,AAGGCTTC,-0.137
4,CTCCCGAC,0.226
5,ACGCGATG,-0.0822
6,CCTTTCAA,-0.164
7,CCAGAAGA,-0.258
8,CGGTTCAG,-0.0792
9,CAGAAATG,-0.128
10,GGGTGAGA,-0.103
11,ACTGTATA,-0.133
12,CTAGCGTC,0.0861
13,ATGAACGG,0.237
14,AGTGATCG,-0.112
15,GTATAGAA,-0.0198
16,CAAAGAAC,0.117
17,CCATCAGA,-0.0847
18,ACCTCAAC,-0.163
19,CCCTCAAG,-0.255
20,AGGATCAC,-0.151
21,CTCGGTGA,0.244
22,CTGACGTA,0.0234
23,ACCGGTGG,0.346
24,CCACAGAC,-0.248
25,GGACTCAC,0.0404

row,Sequence,PBM E-score
1,GAGGTCAC,-0.124
2,CGACCCCC,0.0808
3,ATGAACCG,0.00986
4,ACGAAAGC,-0.00125
5,AATCGTCG,0.0528
6,CCCCGAAA,0.287
7,ACCTTAAG,-0.113
8,TAATCACA,-0.0555
9,ATCTGCTA,-0.268
10,GTGGTAGA,-0.0275
11,AATGCGCG,0.207
12,ACACGCCT,-0.216
13,CTCGCGCA,0.0579
14,AGAAGCTA,0.09
15,CAAGGCGG,0.182
16,ACGTTGAC,-0.151
17,AATGGCAC,0.104
18,GCAGGTAA,0.136
19,GTCCCCAA,-0.0921
20,ATACCCAA,-0.146
21,CCGTCGAC,0.235
22,GCTGATAC,0.125
